# PubChem BioAssay AID2147 (National Center for Advancing Translational Sciences (NCATS), 2009)
# Out of some 230,000 compounds screened, about 3,600 (1.6%) were called active. The inconclusive results got no clear call from the source; some entries with a clear call stand among them for comparison. The call rests on the fitted dose curve; in most records, active means well fitted inhibition curve with a large enough effect (not every such curve was filed as active); inconclusive means small, poorly fitted or top-dose-only effect, or another doubt; inactive means no such curve, though single readings can be large or run the other way. Potencies of inconclusive entries are doubtful fits and often do not repeat.
# Molecular target: Lysine-specific demethylase 4E (Homo sapiens) (UniProt B2RXH2)
# Test: qHTS Assay for Inhibitors of Human Jumonji Domain Containing 2E (JMJD2E)
# Conditions: JMJD2E catalytic domain, FDH-coupled NADH fluorescence (FDH is formaldehyde dehydrogenase); series mostly up to 57.1 µM; activity change, negative = inhibition: at the top concentration
# Further: nearly all actives have a fitted effect of over 50% in size.
# Potency means the concentration at half of the fitted maximal effect; tags describe the fitted curve by direction and shape.
# 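Wherever activity change, negative = inhibition is given: 0% = wells with enzyme and -100% = buffer wells without enzyme.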
# Sequence of UniProt B2RXH2 (B2RXH2 whole entry, looked up, the tested form may be a part): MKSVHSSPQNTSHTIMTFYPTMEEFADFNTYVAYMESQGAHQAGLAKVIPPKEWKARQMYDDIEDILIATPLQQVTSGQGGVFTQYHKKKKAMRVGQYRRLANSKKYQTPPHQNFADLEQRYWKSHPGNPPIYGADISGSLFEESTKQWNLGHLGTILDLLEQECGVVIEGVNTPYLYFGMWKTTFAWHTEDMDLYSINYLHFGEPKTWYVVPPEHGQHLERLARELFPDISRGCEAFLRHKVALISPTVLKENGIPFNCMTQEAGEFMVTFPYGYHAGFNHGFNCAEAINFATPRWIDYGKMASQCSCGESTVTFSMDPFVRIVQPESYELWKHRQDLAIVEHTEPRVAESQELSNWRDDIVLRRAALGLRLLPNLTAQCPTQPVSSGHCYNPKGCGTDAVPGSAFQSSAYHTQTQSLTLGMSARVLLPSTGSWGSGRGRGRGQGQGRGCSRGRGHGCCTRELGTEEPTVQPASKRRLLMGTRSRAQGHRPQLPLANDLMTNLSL
SMILES,Potency,"activity change, negative = inhibition"
S=c1[nH]nc(-c2cc(-c3ccccc3)n[nH]2)n1/N=C/C=C/c1ccco1,"inconclusive: 35.5 µM [inhibitor, single point]",
CCCc1nnc(NC(=O)CCC(=O)N2CCN(c3ccccn3)CC2)s1,"inconclusive: 28.2 µM [inhibitor, single point]",
COC(=O)c1cc(Br)c(=O)n(-c2ccc(OC)cc2)c1,"inconclusive: 35.5 µM [inhibitor, single point]",
CC(C)C(=O)NC(CC(=O)O)c1ccccc1 (stereo not drawn),,inactive: 8.47%
CCOC(=O)c1ccc(Nc2nc(-c3cccnc3)nc3ccccc23)cc1,"inconclusive: 3.98 µM [inhibitor, full curve]",
COc1ccccc1NC(=O)c1sc2ncn(Cc3cccc(C)c3)c(=O)c2c1C,"inconclusive: 23.8 µM [inhibitor, partial curve]",
O=C(CCSCCC(=O)NCc1cccs1)NCc1cccs1,,inactive: 3.47%
COc1ccc(Cn2cccc(NC(=O)Nc3cccc(OC)c3)c2=O)cc1,"inconclusive: 28.2 µM [inhibitor, partial curve]",
COc1cccc(CN2CCNC(=O)C2CC(=O)NCc2cc(C(C)C)no2)c1 (stereo not drawn),,inactive: -19.5%
O=C(COC(=O)c1n[nH]c2ccccc12)NC(=O)NC1CCCC1,"inconclusive: 31.6 µM [inhibitor, single point]",
CCN(CC)CCOC(=O)CCc1cccc2ccccc12,"inconclusive: 25.1 µM [inhibitor, single point]",
COC(=O)Cn1c(=NC(=O)c2nc3ccccc3s2)sc2cc(S(N)(=O)=O)ccc21,"inconclusive: 35.5 µM [inhibitor, partial curve]",
O=C(CCc1nnc(Cc2ccc3c(c2)OCO3)o1)NCc1nc2ccccc2s1,,inactive: 2.78%
COCCN(C(=O)CCc1ccc(OC)cc1)c1nnc(-c2ccncc2)s1,"inconclusive: 31.6 µM [inhibitor, single point]",
Cc1ccsc1C1Nc2ccccc2C(=O)N1O (stereo not drawn),"inconclusive: 35.5 µM [inhibitor, single point]",
Cn1ccc(/C=N/N=C2/NC(=O)CS2)n1,,inactive: -3.48%
CCOC(=O)NN1C(=O)c2ccccc2NC1c1ccc(N(C)C)cc1 (stereo not drawn),"inconclusive: 35.5 µM [inhibitor, single point]",
CCc1c(C)c2cc(Cl)c(O)c(CN(CC)CC)c2oc1=O,"inconclusive: 0.794 µM [inhibitor, full curve]",
Cc1cccc(C(=O)N[C@H](C(=O)Nc2cccc(S(=O)(=O)N3CCCC3)c2)C(C)C)c1,,inactive: -5.86%
CC(=O)Nc1cc(N2C(=O)CCC2=O)ccc1Cl,,inactive: 5.95%
Cc1cc(/C=N/NC(N)=S)c(C)n1-c1ccc(Br)cc1,"inconclusive: 31.6 µM [inhibitor, single point]",
CC(C)COc1ccc(-c2nn(-c3ccccc3)cc2C(=O)Nc2nccs2)cc1,,inactive: -23.9%
Cc1ccc(/C=C/C(=O)c2ccc(C)cc2)cc1,,inactive: 3.23%
COc1ccc2cc(C(c3nnnn3CC3CCCO3)N3CCOCC3)c(=O)[nH]c2c1 (stereo not drawn),"inconclusive: 39.8 µM [inhibitor, single point]",
Cc1cc(C)cc(-n2cnc3cc(C(=O)O)ccc32)c1,,inactive: -6.57%

SMILES,Potency,"activity change, negative = inhibition"
N#Cc1c(N2CCN(C(=O)c3ccccc3Cl)CC2)nc(-c2ccccc2)c2c1CCCC2,"inconclusive: 31.6 µM [inhibitor, partial curve]",
CCC(C)[C@H](NC(=O)N1CCC(C)CC1)C(=O)OC (stereo partly drawn),,inactive: -5.11%
COc1cc(-c2nc3ccc4ccccc4c3c3c2CCC3)cc(OC)c1O,"inconclusive: 28.2 µM [inhibitor, partial curve]",
Cc1ccccc1-n1nnnc1SC1CCOC1=O (stereo not drawn),,inactive: 7.82%
CN(C)c1ccc(C2N3CC4(C)CN2CC(C)(C3)C4O)cc1 (stereo not drawn),"inconclusive: 39.8 µM [inhibitor, single point]",
Fc1ccc(N2CN(Cc3cccnc3)CNC2=S)cc1,,inactive: -3.12%
COc1cc(NC(=O)Cc2ccc([N+](=O)[O-])cc2)c(C(=O)O)cc1OC,"inconclusive: 35.5 µM [inhibitor, single point]",
CCOC(=O)C1CCN(c2nc(-c3ccccc3)nc3c2oc2ccccc23)CC1,"inconclusive: 31.6 µM [inhibitor, partial curve]",
Cc1cc2c(c(=O)n1CCN(C)C)C(c1ccncc1)C(C#N)=C(N)O2 (stereo not drawn),,inactive: 2.65%
CCSc1ncc(Cl)c(C(=O)Nc2sc3c(c2C(=O)NCc2cccnc2)CCCC3)n1,,inactive: 4.83%
N#Cc1ccc(-c2ccco2)nc1SCC(=O)c1ccc(Cl)cc1,"inconclusive: 11.2 µM [inhibitor, partial curve, poor fit]",
CCc1nc(SCC(=O)Nc2ccc(C(=O)O)cc2)n[nH]1,,inactive: -10.3%
COc1ccc(-c2nc3ccccc3o2)cc1NC(=O)c1ccc(Br)o1,"inconclusive: 3.98 µM [inhibitor, full curve]",
CCOC(=O)Nc1ccc2nc(N3CCCCCC3)sc2c1,,inactive: -3.22%
Cc1nc(NCCCO)c(C#N)c2c1COC(C)(C)C2,"inconclusive: 35.5 µM [inhibitor, single point]",
O=C(Nc1nc2cc3c(cc2s1)OCO3)C1CC1,"inconclusive: 35.5 µM [inhibitor, single point]",
O=[N+]([O-])c1ccc(N/N=C/c2ccccc2)cc1,"inconclusive: 39.8 µM [inhibitor, single point]",
COC(=O)c1ccccc1-c1ccc(/C=N/Nc2nc(N3CCCC3)nc(N3CCCC3)n2)o1,"inconclusive: 31.6 µM [inhibitor, partial curve]",
CCCCc1ccc(-c2c(C#N)c(N)nc3c2CCCC3)s1,"inconclusive: 10 µM [inhibitor, partial curve]",
Cc1ccccc1OCCSc1nnc(C)n1-c1ccccc1,,inactive: 15.9%
N#Cc1cc(N)ccc1Sc1ccc(Cl)cc1,"inconclusive: 25.1 µM [inhibitor, partial curve]",
CCCOc1ccc(N2C(=O)CC(NCCNc3ccc(S(=O)(=O)CC)cc3)C2=O)cc1 (stereo not drawn),,inactive: 8.4%
COc1cc(/C=N\NC(=O)CC(=O)NCCc2ccccc2)ccc1O,"inconclusive: 39.8 µM [inhibitor, single point]",
CCOC(=O)C1=C(c2ccccc2)O/C(=C(\C(=O)OC)C(F)(F)F)S1,"inconclusive: 35.5 µM [inhibitor, single point]",
CNC(=O)COC(=O)COc1ccc2c(C)cc(=O)oc2c1,"inconclusive: 12.6 µM [inhibitor, partial curve]",

SMILES,Potency,"activity change, negative = inhibition"
CC[C@]1(O)C[C@@H]2CN(CCc3c([nH]c4ccccc34)[C@@](C(=O)OC)(c3cc4c(cc3OC)N(C)[C@H]3[C@@](O)(C(=O)OC)[C@H](OC(C)=O)[C@]5(CC)C=CCN6CC[C@]43[C@@H]65)C2)C1,"inconclusive: 15.8 µM [inhibitor, partial curve, poor fit]",
CCN(CC)c1ccc(C(=O)OCC(=O)Nc2sccc2C#N)cc1,"inconclusive: 39.8 µM [inhibitor, single point]",
CN1CCc2c(sc(NC(=O)c3ccc(S(=O)(=O)N4CCc5ccccc54)cc3)c2C(N)=O)C1,"inconclusive: 28.2 µM [inhibitor, single point]",
O=C(Cc1cccs1)N1CCN(c2cccc(Cl)c2)CC1,"inconclusive: 39.8 µM [inhibitor, single point]",
CCOC(=O)c1c(NC(=O)CSc2nnc(N)s2)sc(C)c1-c1ccc(C)cc1,,inactive: 1.46%
COc1ccc(CNc2ccccc2SC)cc1OC,"inconclusive: 39.8 µM [inhibitor, single point]",
Cn1cccc1/C=N/N1CCN(c2ccccc2)CC1,"inconclusive: 28.2 µM [inhibitor, partial curve]",
COC(=O)c1cc(OC)c(OC)cc1NC(=O)CSc1nnnn1Cc1ccccc1,"inconclusive: 39.8 µM [inhibitor, single point]",
Cc1cc(=O)n2[nH]c(N)c(N=Nc3ccccc3F)c2n1,,inactive: 2.45%
Nc1nn(-c2ccccc2)c(N)c1N=Nc1cccc(F)c1,,inactive: -14.2%
CS(=O)(=O)N1N=C(c2cccs2)CC1c1ccc(Cl)o1 (stereo not drawn),,inactive: 1.18%
Cc1ccccc1Nc1sc(C(=O)Nc2cccc(Cl)c2)c(N)c1C(N)=O,,inactive: -3.89%
CN(C)CCCNC(=O)/C(=C\c1ccc(-c2cccc([N+](=O)[O-])c2)o1)NC(=O)c1ccccc1,,inactive: -3.48%
Cc1cc(C)c2nc(SC(C)C#N)cc(C)c2c1 (stereo not drawn),,inactive: 5.42%
Oc1ccc(/C(Cc2ccccn2)=N\Nc2ccccc2)c(O)c1,"inconclusive: 25.1 µM [inhibitor, single point]",
CC(C)(Cl)C1Cc2cc3ccc(=O)oc3cc2O1 (stereo not drawn),"inconclusive: 3.55 µM [inhibitor, full curve]",
C/C(=N/NC(=O)c1cccs1)c1ccc(N2CCOCC2)cc1,"inconclusive: 35.5 µM [inhibitor, single point]",
CCOC(=O)CSCC(=O)N1N=C(c2cccs2)CC1c1ccc(F)cc1 (stereo not drawn),"inconclusive: 28.2 µM [inhibitor, partial curve]",
Cc1ccc(NC2=C/C(=N/S(=O)(=O)c3cccs3)c3ccccc3C2=O)cc1,,inactive: 2.59%
CCOC(=O)CNC(=O)CSc1ncnc2c1cnn2Cc1ccccc1,"inconclusive: 28.2 µM [inhibitor, partial curve]",
O=C(CCCl)N1CCCC2(CCCCC2)C1,,inactive: 1.06%
Cn1c(=O)n(C)c2cc(/C=C(/C#N)C(=O)NCc3ccco3)ccc21,"inconclusive: 35.5 µM [inhibitor, single point]",
CC(C)[C@@H](CC(=O)N[C@@H]1CCNC[C@H]1C(=O)N[C@H](CC(=O)N[C@@H](CCC(=O)O)CC(=O)O)Cc1c[nH]c2ccccc12)NC(=O)C[C@H](Cc1c[nH]c2ccccc12)NC(=O)[C@@H]1CNCC[C@H]1N,"inconclusive: 35.5 µM [inhibitor, single point]",
